From PubChem BioAssay AID588342 (National Center for Advancing Translational Sciences (NCATS), 2011)
The campaign covered roughly 360,000 compounds. About 25,000 (6.9%) were called active. Inconclusive results, whose numbers are uncertain, are shown with a selection of clear calls. The call rests on the fitted dose curve; in most records, active means well fitted inhibition curve with a large enough effect; inconclusive means small, poorly fitted or top-dose-only effect; inactive means flat fitted curve, though single readings scatter. A potency beside an inconclusive call is a rough fit, not a confirmed value.

target: Luciferin 4-monooxygenase (Photinus pyralis) (UniProt P08659); experiment: qHTS profiling assay for firefly luciferase inhibitor/activator using purifed enzyme and Km concentrations of substrates (counterscreen for miR-21 project); conditions: purified FLuc, luminescence inhibition; series mostly up to 57.5 µM; activity change, negative = inhibition: at the top concentration; further: nearly all actives have a fitted effect of over 55% in size;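 on activity change, negative = inhibition: plate controls were vehicle for no effect and reference inhibitor for full effect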
UniProt P08659, sequence (P08659 whole entry, looked up): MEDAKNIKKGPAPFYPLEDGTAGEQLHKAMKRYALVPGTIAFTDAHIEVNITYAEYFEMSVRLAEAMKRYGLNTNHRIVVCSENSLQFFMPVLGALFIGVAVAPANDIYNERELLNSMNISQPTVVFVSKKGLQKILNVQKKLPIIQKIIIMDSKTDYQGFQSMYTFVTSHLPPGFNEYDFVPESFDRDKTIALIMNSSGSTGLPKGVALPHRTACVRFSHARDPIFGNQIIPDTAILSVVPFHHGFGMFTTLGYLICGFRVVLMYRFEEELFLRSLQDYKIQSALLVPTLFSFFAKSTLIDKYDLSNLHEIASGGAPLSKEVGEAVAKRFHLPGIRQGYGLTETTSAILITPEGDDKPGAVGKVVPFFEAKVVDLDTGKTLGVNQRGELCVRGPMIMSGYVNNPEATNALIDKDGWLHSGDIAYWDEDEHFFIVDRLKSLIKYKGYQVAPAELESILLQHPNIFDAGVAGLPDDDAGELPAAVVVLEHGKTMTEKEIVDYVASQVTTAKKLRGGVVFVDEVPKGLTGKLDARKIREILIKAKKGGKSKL
In short: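 Biochemical qHTS of compounds, final roughly 60 µM downward over six points, against 10 nM purified firefly luciferase using Km concentrations of substrates (10 uM D-luciferin, 10 uM ATP) in Tris acetate pH 7.5 buffer; luminescence output.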
Potency means the concentration at half of the fitted maximal effect; tags describe the fitted curve by direction and shape.

Row | SMILES | Potency | activity change, negative = inhibition
1 | COc1ccc(N2C(=O)/C(=C/c3ccc(C)o3)C(=O)NC2=S)cc1 | inconclusive: 13.5 µM [inhibitor, partial curve] | –
2 | O=[N+]([O-])c1c2ccccc2cc2ccccc12 | inconclusive: 10.7 µM [inhibitor, partial curve, poor fit] | –
3 | Cc1cc(/C=C2\C(=O)NC(=O)N(Cc3ccco3)C2=O)c(C)n1-c1ccc(O)cc1 | active: 15.1 µM | –
4 | COc1ccc(N2C(=O)NC(=O)/C(=C/c3ccc([N+](=O)[O-])s3)C2=O)cc1 | inconclusive: 15.1 µM [inhibitor, partial curve] | –
5 | O=C(Nc1ccc2c(c1)OCO2)c1cccn(Cc2cccc([N+](=O)[O-])c2)c1=O | – | inactive: 5.46%
6 | C/C(=C\c1ccc(N(C)C)cc1)[N+](=O)[O-] | inconclusive: 15.1 µM [inhibitor, partial curve] | –
7 | COc1cc(/C=C/c2nc3ccccc3c(=O)n2-c2ccccc2O)ccc1O | active: 16.9 µM | –
8 | Cc1cc(C(=O)OCC(=O)Nc2ccccc2F)c(C)n1C1CC1 | inconclusive: 19 µM [inhibitor, single point] | –
9 | CC1CN=C(Nc2ccc(N(C)C)cc2)S1 (centres undefined) | inconclusive: 23.9 µM [inhibitor, single point] | –
10 | Cc1cccc(N2CCN(C(=O)c3ccc(CNc4c(N5CCC(C)CC5)c(=O)c4=O)cc3)CC2)c1C | inconclusive: 12 µM [inhibitor, partial curve, poor fit] | –
11 | O=C1NC(=S)NC(=O)C1=Cc1ccc2c(c1)CCN2CCCCl | inconclusive: 37.9 µM [inhibitor, single point] | –
12 | COC(=O)[C@@H](NC(=O)c1cc(COc2cncc(Cl)c2)on1)c1ccccc1 | inconclusive: 37.9 µM [inhibitor, partial curve, poor fit] | –
13 | Cc1ccccc1N1C(=O)NC(=O)/C(=C\c2ccc3c(c2)CCCN3Cc2ccccc2)C1=O | inconclusive: 37.9 µM [inhibitor, single point] | –
14 | O=[N+]([O-])c1ccc(C2C3C(c4ccccc4)=NC4(CCCCC4)N32)cc1 (centres undefined) | – | inactive: 7.73%
15 | COc1cc(/C=C2\C(=O)NC(=O)N(c3ccccc3)C2=O)cc(OC)c1O | active: 21.3 µM | –
16 | CCCN1CCC2(CC1)NC(CO)(CO)CO2 | inconclusive: 8.49 µM [inhibitor, partial curve, poor fit] | –
17 | COc1ccc(OC)c(N2C(=O)/C(=C/c3ccco3)C(=O)NC2=S)c1 | inconclusive: 23.9 µM [inhibitor, single point] | –
18 | CCOc1cc(C=C2C(=O)NC(=O)NC2=O)cc([N+](=O)[O-])c1O | inconclusive: 23.9 µM [inhibitor, partial curve, poor fit] | –
19 | NC1=C(Br)C(=O)c2ccccc2C1=O | inconclusive: 37.9 µM [inhibitor, single point] | –
20 | ClCCNc1nc2ccc(Cl)cc2[nH]1 | inconclusive: 21.3 µM [inhibitor, partial curve, poor fit] | –
21 | CC(C)(C)N1C(=O)NC(=O)/C(=C\c2ccc3c(c2)CCN3CCCCl)C1=O | inconclusive: 37.9 µM [inhibitor, single point] | –
22 | O=P(O)(Oc1ccccc1)OC(c1ccccc1)C(F)(F)C(F)(F)F (centres undefined) | inconclusive: 12 µM [inhibitor, partial curve] | –

Row | SMILES | Potency | activity change, negative = inhibition
23 | COc1ccc(-n2c(O)c(/C=C3\C=Nc4ccc(Br)cc43)c(=O)[nH]c2=O)c(OC)c1 | inconclusive: 12 µM [inhibitor, partial curve, poor fit] | –
24 | CC(=O)Nc1ccc(OC(=O)c2ccccc2N)cc1 | inconclusive: 30.1 µM [inhibitor, single point] | –
25 | CC(C)c1ccc(-n2c(O)c(/C=N/NC(=O)c3ccccc3O)c(=O)[nH]c2=S)cc1 | active: 26.9 µM | –
26 | Cc1cc(C)cc(OCC(=O)Nc2ccc(-c3nc4ccccc4s3)cc2)c1 | inconclusive: 30.1 µM [inhibitor, partial curve, poor fit] | –
27 | Cc1nnc(NC(=O)c2cccn(Cc3cccc(F)c3)c2=O)s1 | – | inactive: 2.28%
28 | CC/C(=N\NC(=O)c1ccccc1O)c1c(O)n(Cc2ccccc2)c(=O)[nH]c1=O | active: 9.53 µM | –
29 | CN1C(=O)NC(=O)/C(=C/c2ccc([N+](=O)[O-])o2)C1=O | inconclusive: 26.9 µM [inhibitor, partial curve, poor fit] | –
30 | COC(=O)c1ccc(-c2nc(-c3ccc(Br)o3)no2)cc1 | active: 1.69 µM | –
31 | Cc1cc(NC(=O)c2noc3c2CCCCC3)no1 | active: 15.1 µM | –
32 | O=C(c1cc2cc(Br)ccc2[nH]1)N1CCC2(CC1)OCCO2 | inconclusive: 26.9 µM [inhibitor, partial curve, poor fit] | –
33 | COc1cccc(N2C(=O)NC(=O)/C(=C/c3ccc([N+](=O)[O-])s3)C2=O)c1 | inconclusive: 26.9 µM [inhibitor, single point] | –
34 | CCOC(=O)c1c(C)n(Cc2ccc(F)cc2)c2ccc(O)cc12 | inconclusive: 21.3 µM [inhibitor, partial curve, poor fit] | –
35 | COc1ccc(-n2c(/C=C/c3ccc4c(c3)OCO4)nc3ccccc3c2=O)cc1 | – | inactive: -11%
36 | CCN(CC)c1ccc(N=Cc2c(O)n(-c3cc(OC)ccc3OC)c(=O)[nH]c2=O)cc1 | inconclusive: 16.9 µM [inhibitor, partial curve] | –
37 | COc1ccc(-c2coc3cc(OC(=O)N4CCOCC4)ccc3c2=O)cc1 | active: 23.9 µM | –
38 | CCCCCCOc1ccc(C(=O)n2cnc(N)n2)cc1 | inconclusive: 19 µM [inhibitor, partial curve] | –
39 | CCN(CC)C(=O)c1ccc(NC(=O)COc2ccc([N+](=O)[O-])cc2Cl)cc1 | inconclusive: 21.3 µM [inhibitor, single point] | –
40 | COc1ccc(/C=C2\C(=O)NC(=O)N(Cc3ccccc3)C2=O)c(OC)c1OC | – | inactive: -19.6%
41 | O=C1NC(=O)C(=Cc2ccc3ccccc3c2)C(=O)N1 | inconclusive: 37.9 µM [inhibitor, partial curve, poor fit] | –
42 | O=C(Nc1ccc(C(F)(F)F)cc1)c1cccn(Cc2ccc3c(c2)OC(F)(F)O3)c1=O | inconclusive: 26.9 µM [inhibitor, partial curve, poor fit] | –
43 | COc1ccccc1OCCCn1cc(C(C)=O)c2ccccc21 | inconclusive: 37.9 µM [inhibitor, partial curve, poor fit] | –
44 | CC(C)(C)n1cc(C(=O)c2ccc3ccccc3c2O)cn1 | active: 0.675 µM | –

Row | SMILES | Potency | activity change, negative = inhibition
45 | CC[n+]1c(/C=C/C=C/c2ccc(N(C)C)cc2)sc2ccccc21 | inconclusive: 16.9 µM [inhibitor, partial curve] | –
46 | Cn1c(O)c(/C=C2\N=c3ccccc3=C2CCNC(=S)NC2CC2)c(=O)n(C)c1=O | inconclusive: 12 µM [inhibitor, partial curve] | –
47 | COc1cc(CC2C(=O)N(C)C(=O)N(C)C2=O)ccc1OCc1ccccc1 | inconclusive: 21.3 µM [inhibitor, single point] | –
48 | O=[N+]([O-])c1ccc2nc(CCCc3nc4ccc([N+](=O)[O-])cc4[nH]3)[nH]c2c1 | inconclusive: 26.9 µM [inhibitor, single point] | –
49 | CCCCOC(=O)n1c(=O)oc2ccccc21 | inconclusive: 21.3 µM [inhibitor, single point] | –
50 | CCNC(=S)NCCC1=c2ccccc2=N/C1=C\c1c(O)n(C)c(=O)n(C)c1=O | inconclusive: 12 µM [inhibitor, partial curve, poor fit] | –
51 | O=C(c1cc2ccccn2n1)N1CCN(Cc2ccccc2)CC1 | inconclusive: 26.9 µM [inhibitor, partial curve, poor fit] | –
52 | COc1ccc2o/c(=N\O)c(C(=O)Nc3ccc(C)cc3)cc2c1 | inconclusive: 26.9 µM [inhibitor, single point] | –
53 | CN(C)c1ccc(P(=O)(Nc2ccc([N+](=O)[O-])cc2)N2CCOCC2)c(NC(=O)c2cccs2)c1 (centres undefined) | inconclusive: 4.26 µM [inhibitor, partial curve, poor fit] | –
54 | CC(C)(C)c1ccc(OCCON2C(=O)CCC2=O)c(Cl)c1 | active: 15.1 µM | –
55 | O=C(O)c1sc2cc(Cl)ccc2c1Cl | inconclusive: 37.9 µM [inhibitor, single point] | –
56 | Cc1ccc(/C=C2\C(=O)NC(=S)N(c3ccc(F)cc3)C2=O)s1 | inconclusive: 6.75 µM [inhibitor, partial curve] | –
57 | COc1ccc(/C=C2/C(=O)NC(=O)N(C3CCCCC3)C2=O)cc1CSc1ccccn1 | inconclusive: 23.9 µM [inhibitor, partial curve, poor fit] | –
58 | COc1ccc(C(CC(=O)N2CCC3(CC2)OCCO3)NS(=O)(=O)c2ccc(F)cc2)cc1 (centres undefined) | – | inactive: -0.512%
59 | O=C1C[C@@H](c2ccc(O)cc2)Oc2cc(O)cc(O)c21 | inconclusive: 21.3 µM [inhibitor, single point] | –
60 | Cc1ccc2nc(SCC(=O)N/N=C/c3ccco3)cc(C)c2c1 | inconclusive: 23.9 µM [inhibitor, partial curve] | –
61 | COc1ccc(C=C2C(=O)N(C)C(=O)N(C)C2=O)cc1COc1ccc(NC(C)=O)cc1 | inconclusive: 37.9 µM [inhibitor, single point] | –
62 | CCC12CCN(CCc3ccccc3)CC1Oc1c(O)cccc12 (centres undefined) | – | inactive: 6.79%
63 | Nc1ccc2nc3c(c(Cl)c2c1)CCCC3 | inconclusive: 26.9 µM [inhibitor, partial curve] | –
64 | N#Cc1cc2c(nc1SCC(=O)Nc1ccc(Cl)cc1)C1CCN2CC1 | inconclusive: 37.9 µM [inhibitor, partial curve, poor fit] | –
